Source: PubChem BioAssay AID2675 (National Center for Advancing Translational Sciences (NCATS), 2010)
Hit rate of the full screen: of about 280,000 compounds, about 100 (0.036%) were called active. This list was built around the results that the source calls inconclusive (neither active nor inactive); the mix of calls is not that of the screen. Calls follow the shape of the dose curve; as a rule, active = well fitted inhibition curve with a large enough effect in the signal ratio, with a control signal flat (not every such curve was filed as active); inconclusive = small, poorly fitted or top-dose-only effect, or effect the other way, or a change in a side signal; inactive = no such curve, though single readings can be large or run the other way; the % refers to the signal ratio. Where the call is inconclusive, the potency comes from a doubtful curve fit. A note “side channel” means that the fit belongs to a control or component signal, not to the main read-out.

Target: Muscleblind-like protein 1 (Homo sapiens) (UniProt Q9NR56)
Assay: qHTS Assay for Inhibitors of MBNL1-poly(CUG) RNA binding
Conditions: TR-FRET MBNL1-His/biotin-(CUG)12 binding, 665/545 ratio; series mostly up to 57.5 µM
How it was run: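 Compounds (final 92 nM to 58 uM) are added to His-tagged MBNL1 and biotin-(CUG)12, then terbium anti-His antibody and streptavidin-XL665 (5 nM final). After 60 min at room temperature, the 665/545 nm ratio is read.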
Potency is read from the fitted curve at half-maximal effect; tags tell the direction and shape of the fitted curve or compound fluorescence and quenching.

Sequence of UniProt Q9NR56 (Q9NR56 whole entry, looked up): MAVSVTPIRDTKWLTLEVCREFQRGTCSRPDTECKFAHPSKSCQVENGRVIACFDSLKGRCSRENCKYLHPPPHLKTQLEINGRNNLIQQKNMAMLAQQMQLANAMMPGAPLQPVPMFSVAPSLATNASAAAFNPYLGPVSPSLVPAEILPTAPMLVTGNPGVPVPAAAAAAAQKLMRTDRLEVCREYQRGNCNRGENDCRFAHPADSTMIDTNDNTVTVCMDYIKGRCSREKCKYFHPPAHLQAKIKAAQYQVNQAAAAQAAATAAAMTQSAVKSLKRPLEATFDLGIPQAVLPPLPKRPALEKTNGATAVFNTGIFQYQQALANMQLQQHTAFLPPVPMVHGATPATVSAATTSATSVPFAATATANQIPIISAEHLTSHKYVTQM

Row | SMILES | Potency
1 | O=C(Oc1cccnc1)c1ccc([N+](=O)[O-])cc1 | inconclusive: 11.2 µM [quencher, side channel, partial curve]
2 | COc1ccc(-n2ccn(CC(=O)Nc3ccc(OC)cc3OC)c(=O)c2=O)cc1 | inconclusive: 10 µM [quencher, side channel, partial curve]
3 | COc1ccc(OC)c(NC(=O)C2CCC(CNc3c(N4CCC(C)CC4)c(=O)c3=O)CC2)c1 (stereo not drawn) | inactive
4 | Cc1ccc(S(=O)(=O)Cc2cc(F)c([N+](=O)[O-])cc2[N+](=O)[O-])cc1 | inconclusive: 7.08 µM [quencher, side channel, partial curve]
5 | O=C(/C=C/Nc1ccc(Nc2ccccc2)cc1)c1cccs1 | inconclusive: 31.6 µM [quencher, side channel, single point]
6 | Cc1c(Br)c([N+](=O)[O-])nn1CCCC(=O)NC(C)c1ccccc1 (stereo not drawn) | inconclusive: 25.1 µM [quencher, side channel, single point]
7 | Clc1ccccc1CSc1nnc(-c2ccncc2)o1 | inactive
8 | CCc1nc2ccccc2c(C(=O)OCC(=O)Nc2cccc(S(=O)(=O)N3CCOCC3)c2)c1C | inactive
9 | Nc1cccc2nc3ccccc3cc12 | inconclusive: 7.08 µM [quencher, side channel, partial curve]
10 | Cc1ccccc1NC1(C#N)C(=O)Nc2ccccc21 (stereo not drawn) | inconclusive: 22.4 µM [quencher, side channel, partial curve]
11 | Cc1nc2[nH]c(=S)[nH]c2cc1Br | inactive
12 | O=C(/C=C/c1ccc([N+](=O)[O-])cc1)N(c1ccccn1)C1CCCCC1 | inconclusive: 14.1 µM [quencher, side channel, partial curve]
13 | CC(NC(=O)Cn1ncc(Cl)c(Cl)c1=O)C12CC3CC(CC(C3)C1)C2 (stereo not drawn) | inconclusive: 11.2 µM [fluorescent, side channel, single point]
14 | Cc1cc(C)nc(-n2nc(C)cc2NC(=O)CNCc2ccccc2)n1 | inactive
15 | O=C(NCCNc1cc(Cl)ccc1[N+](=O)[O-])c1ccco1 | inconclusive: 1.12 µM [quencher, side channel, single point]
16 | CCSc1nc2ccccc2n1Cc1cccc([N+](=O)[O-])c1 | inconclusive: 28.2 µM [quencher, side channel, partial curve]
17 | COc1ccc(NC(=O)CCS(=O)(=O)c2cccc3nonc23)cc1Cl | inconclusive: 2.82 µM [quencher, side channel, partial curve]
18 | CC(NC(=O)c1cc2ccccc2oc1=O)c1ccc(O)cc1 (stereo not drawn) | inconclusive: 28.2 µM [quencher, single point]
19 | CC(=O)N1CCc2cc(N=NC3=C(O)CC(C)(C)CC3=O)ccc21 | inconclusive: 10 µM [quencher, side channel, partial curve]

Row | SMILES | Potency
20 | Cc1cc(C)cc(OC(=O)CS(=O)c2ccc(C(F)(F)F)cc2[N+](=O)[O-])c1 (stereo not drawn) | inconclusive: 31.6 µM [quencher, side channel, partial curve]
21 | Cc1cccc(C(=O)O/N=C(/c2ccccc2)c2ccncc2)c1 | inactive
22 | O=[N+]([O-])c1ccc(NCCNc2ccc(Cl)nn2)cc1 | inconclusive: 20 µM [quencher, side channel, partial curve]
23 | C(=N\Nc1nn2cnnc2c2ccccc12)/c1ccco1 | inconclusive: 8.91 µM [quencher, side channel, partial curve]
24 | Cn1c(=O)n(C)c2cc(/C=C3/SC(=O)N(CC(=O)N4CCOCC4)C3=O)ccc21 | inconclusive: 7.08 µM [quencher, side channel, partial curve]
25 | Cn1nnc2sc3c(c2c1=O)CCCC3 | inconclusive: 20 µM [quencher, side channel, single point]
26 | CS(=O)(=O)N(CC(=O)Nc1cccc([N+](=O)[O-])c1)c1cccc(F)c1 | inconclusive: 12.6 µM [quencher, side channel, partial curve]
27 | CCOCCCNc1nc2c(c(=O)[nH]c(=O)n2C)n1CCCc1ccccc1 | inconclusive: 4.47 µM [quencher, side channel, single point]
28 | COc1ccc2nc3oc(C(=O)NCCCOC(C)C)cc3cc2c1 | inconclusive: 15.8 µM [quencher, partial curve]
29 | COc1cccc(/C(O)=C2/C(=O)C(=O)N(Cc3ccco3)C2c2ccncc2)c1 (stereo not drawn) | inconclusive: 39.8 µM [quencher, side channel, single point]
30 | O=C(NCCCCCCNC(=O)c1cncc(O)c1)c1cncc(O)c1 | inactive
31 | COc1ccc(CNC(=O)c2c(C)oc3c2C(=O)c2ccccc2C3=O)cc1 | inconclusive: 1.78 µM [quencher, side channel, full curve]
32 | COC(=O)c1ccc(C2C(C(=O)c3cc4ccccc4o3)=C(O)C(=O)N2CCCN(C)C)cc1 (stereo not drawn) | inconclusive: 25.1 µM [quencher, side channel, partial curve, poor fit]
33 | O=C(NCC(c1cccs1)N1CCOCC1)c1cccc([N+](=O)[O-])c1 (stereo not drawn) | inconclusive: 20 µM [quencher, side channel, partial curve]
34 | CO/N=C/C(=N\Nc1ccccc1)C(=O)c1ccccc1 | inactive
35 | Cc1c(C(=O)NN)nn(-c2ccc(Cl)cc2)c(=O)c1C#N | inconclusive: 14.1 µM [quencher, side channel, partial curve]
36 | O=[N+]([O-])c1cccnc1NCCc1ccccc1 | inconclusive: 12.6 µM [quencher, side channel, partial curve]
37 | Cc1cccc(C(=O)N2CCN(c3ccc([N+](=O)[O-])c(N4CCOCC4)c3)CC2)c1 | inconclusive: 15.8 µM [quencher, side channel, partial curve]
38 | O=C(COC(=O)/C=C/c1ccc2c(c1)OCO2)NC1CCS(=O)(=O)C1 (stereo not drawn) | inconclusive: 39.8 µM [quencher, single point]
